These results are taken from PubChem BioAssay AID1159614 (National Center for Advancing Translational Sciences (NCATS), 2016).

Out of some 45,000 compounds screened, about 65 (0.1%) were called active. The call rests on the fitted dose curve; in most records, active means well fitted activation curve with a large enough effect; inconclusive means small, poorly fitted or top-dose-only effect; inactive means no such curve, though single readings can be large or run the other way. This is one part of the list.

This assay concerns the target Galactocerebrosidase (Homo sapiens) (UniProt P54803). As to the kind of experiment: A Novel Cell-Based Assay to Identify Small Molecules for B -Galactocerebrosidase. Further: 0% is about no effect; nearly all actives have a fitted effect of over 65% in size. To be noted: 145M-Twi-hGALC-G270D cells (Twitcher mouse brain line with human GALC G270D), HMU-beta-Gal fluorescence, 48 h; series mostly up to 57.5 µM; activation: at the top concentration. The gist of the method: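 Brain-derived Twitcher mouse 145M-Twi cells stably expressing human GALC-G270D or wild-type GALC, treated live, then residual GALC activity read by fluorescence of HMU-b-Gal substrate (0.1 mM final) in citrate-phosphate buffer pH 5.2 with sodium taurocholate. Signal increase indicates enhancement.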
Chain of UniProt P54803 (P54803 whole entry, looked up): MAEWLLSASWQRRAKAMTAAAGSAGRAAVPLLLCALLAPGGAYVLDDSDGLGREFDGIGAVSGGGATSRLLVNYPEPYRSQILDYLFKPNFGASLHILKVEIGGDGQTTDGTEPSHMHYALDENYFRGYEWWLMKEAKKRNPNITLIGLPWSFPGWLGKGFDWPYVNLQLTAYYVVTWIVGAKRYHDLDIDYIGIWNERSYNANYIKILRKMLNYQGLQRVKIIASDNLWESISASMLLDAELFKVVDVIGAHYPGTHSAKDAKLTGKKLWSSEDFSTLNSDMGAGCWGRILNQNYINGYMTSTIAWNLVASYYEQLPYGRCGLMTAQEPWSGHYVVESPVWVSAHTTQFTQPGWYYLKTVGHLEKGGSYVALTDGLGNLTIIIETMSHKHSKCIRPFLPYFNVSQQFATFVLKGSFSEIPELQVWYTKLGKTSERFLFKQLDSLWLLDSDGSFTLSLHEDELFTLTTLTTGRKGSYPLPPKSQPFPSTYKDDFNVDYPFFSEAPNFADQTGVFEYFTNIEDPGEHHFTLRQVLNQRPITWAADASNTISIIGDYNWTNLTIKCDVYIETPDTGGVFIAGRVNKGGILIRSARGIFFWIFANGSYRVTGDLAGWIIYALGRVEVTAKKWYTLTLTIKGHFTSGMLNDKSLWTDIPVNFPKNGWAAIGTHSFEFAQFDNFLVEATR
For the molecule `NC(=O)NC(=O)Cc1ccccc1`, the “activation” value is inactive: -13.2%.
The same measure for `O=C(CSc1nc2ccccc2nc1Cc1ccccc1)N1CCc2ccccc21`: inactive: -12%; for `Cc1cccc(-c2nc3c4ccccc4nc(N4CCN(c5cccc(Cl)c5)CC4)n3n2)c1`: inactive: -11.4%.
The figure for `Cc1cc(C)c2oc(-c3cccc(NC(=O)c4cccc(F)c4)c3C)nc2c1` is inactive: -3.33%.
With `CCC(C)NC(=O)c1ccc(CNS(=O)(=O)c2ccc3c(c2)C(C)(C)C(=O)N3C)cc1` (stereo not drawn), the “activation” value is inactive: 4.39%.
Consider `CCCCN(C)C(=O)CSc1c2c(nc3ccc(Cl)cc13)CCCC2`, for which the “activation” value is inactive: -20.8%.
The same measure for `COc1ccc(CCNC(=O)c2ccc(Cn3c(=O)c4cccn4c4cccnc43)cc2)cc1OC`: inactive: 2.37%; for `Cc1cc(C)n2nc(CNS(=O)(=O)c3cccc(Cl)c3)nc2n1`: inactive: -8.83%.
The figure for `Cc1cc(C(=O)N2CCN(c3ccccc3F)CC2)c2c(C)nn(-c3ccccc3)c2n1` is inactive: -2.99%; for `Cc1cc(C)c2c(n1)nn1c(C)c(CCC(=O)Nc3cccc(C)c3C)c(C)nc21` it is inactive: -17%.
The same measure for `Cc1cccc(N2CCN(CCCNC(=O)Cn3ncc4c([nH]c5ccccc54)c3=O)CC2C)c1` (stereo not drawn): inactive: 6.24%.
For the molecule `Cc1ccc(Cl)cc1N1CCN(C(=O)C2CCN(S(=O)(=O)c3cn(C)cn3)CC2)CC1`, the “activation” value was inactive: -2.67%.
`Cc1ccc(Cl)cc1NC(=O)CN1C=NS(=O)(=O)c2ccccc21`: the “activation” value was inactive: -13.7%.
The same measure for `CCc1ccc(S(=O)(=O)Nc2ccc3c(c2)sc(=O)n3C)cc1`: inactive: -18.4%; for `CCc1nn(CCCC(=O)NCc2ccccc2OC)c(=O)c2cc3occc3n12`: inactive: -12.6%.
The figure for `Cc1cccc(Cn2c(=O)n(-c3cc(C)cc(C)c3)c(=O)c3oc4ccccc4c32)c1` is inactive: -7.02%; for `CCc1nn(CC(=O)NCc2ccccc2)c(=O)c2cccn12` it is inactive: -12.3%; for `CCOCCCn1c(=N)c(C(=O)NC2CCCCC2)cc2c(=O)n3ccccc3nc21` it is inactive: -15.6%.
For the molecule `O=C(NCCS(=O)(=O)N1CCN(c2cccc(Cl)c2)CC1)C(c1ccccc1)c1ccccc1`, the “activation” value was inactive: -9.43%.
Regarding `COc1ccc(N(C)C(=O)Cn2cnc3sc(C)c(S(=O)(=O)N4CCN(c5ncccn5)CC4)c3c2=O)cc1`, the “activation” value is inactive: -7.6%.
The same measure for `Cc1ccc(-c2nc3cccc(C)n3c2Nc2ccc3c(c2)OCCO3)cc1`: inactive: -8.08%; for `CCc1ccc(NC(=O)c2cnn(-c3c(C)cccc3C)c2C2CCN(C(=O)OC(C)(C)C)CC2)cc1`: inactive: -7.57%.
The same measure for `COc1ccc(-c2cn3c(n2)sc2cc(C(=O)Nc4ccc(C)c(Cl)c4)ccc23)cc1`: inactive: -11.5%; for `CC1=C(c2ccc(C(C)C)cc2)S(=O)(=O)N=C1N1CCC(C(=O)Nc2ccc(C)cc2)CC1`: inactive: -14%.
The figure for `CCOc1ccc(-c2nnc(SCC(=O)Nc3ccc(C)cc3C)o2)cc1` is inactive: -7.05%; for `COC(=O)c1ccc(NC(=O)n2ncc3c(C)cccc32)cc1` it is inactive: 5.39%.
Turning to `CCOC(=O)c1[nH]c2c(c1Cc1ccccc1C)C(=O)CC(c1ccccc1)C2` (stereo not drawn), the “activation” value was inactive: -21.9%.
The same measure for `Cc1ccc(S(=O)(=O)N2CCN(Cc3cc(=O)n4nc(-c5ccccc5Cl)sc4n3)CC2)cc1`: inactive: -11.1%; for `Cn1c(=O)cc(SCC(=O)NCc2ccc(F)cc2)c2cc(Cl)ccc21`: inactive: -16.4%.
Turning to `CCOC(=O)c1c(C)[nH]c(C)c1S(=O)(=O)N1CCC(C(=O)Nc2ccccc2CC)CC1`, the “activation” value was inactive: -11.6%.
The same measure for `Cc1c(C(=O)N2CCCCCC2)c(S(=O)(=O)Nc2cccc(C#N)c2)c(C)n1C`: inactive: -3.93%.
The same measure for `Cc1cc(=O)[nH]c2nnc(SCc3ccccc3F)n12`: inactive: -18.2%; for `O=C(NCCc1ccccc1)C(=O)NCC(c1cccs1)S(=O)(=O)c1cccs1` (stereo not drawn): inactive: -12%.
The same measure for `CC1(C)N=C(SCc2ccc(Cl)cc2)c2ccccc2N1`: inactive: 6.64%; for `CCCCNC(=O)CSc1nc2cc3c(cc2c(=O)n1Cc1ccc(C(=O)NCCc2ccc(OC)c(OC)c2)cc1)OCO3`: inactive: -9.59%; for `CCc1ccc(-n2nc(CO)c(C(=O)NCc3ccccc3Cl)n2)cc1`: inactive: -11%.
In the case of `Cn1c(=O)c(=O)n(C)c2cc(NS(=O)(=O)c3ccc(Br)cc3)c(Cl)cc21`, the “activation” value is inactive: -18%.
Consider `COc1ccc(NC(=O)N2CCCn3nc(C)cc32)cc1OC`, for which the “activation” value is inactive: -13.8%.
The figure for `O=C(CCC(=O)N1Cc2ccccc2Oc2ncccc21)NCc1cccc(Cl)c1` is inactive: -13.7%; for `O=C(NCc1cccc(Cl)c1)c1ccc(NC(=O)N2CCSc3ccccc32)cc1` it is inactive: -10%; for `Cc1cc2[nH]c(=O)c(=O)[nH]c2cc1S(=O)(=O)N1CCN(c2ccccc2)CC1` it is inactive: -6.75%.
Consider `COc1ccc(Cc2nc3ccccc3n2Cc2ccccc2C)cc1`, for which the “activation” value was inactive: 2.2%.
The same measure for `CCn1c(C(=O)NCc2ccccc2Cl)cc2sc(Cl)cc21`: inactive: -12.3%; for `CC1CCN(c2nc3ccc(C(=O)NC(C)C)cc3s2)CC1`: inactive: 6.8%.
Consider `Cc1ccc(CN2C(=O)SC(Nc3ccc(Cl)cc3)C2=O)cc1` (stereo not drawn), for which the “activation” value is inactive: -7.6%.
For the molecule `Cc1ccc(Cc2c(C)nc3nc(SCC(=O)NCCC(C)C)nn3c2C)cc1`, the “activation” value is inactive: -9.58%.
The figure for `COc1ccc(NC(=O)Cn2c(=O)n(-c3ccc(C)cc3)c(=O)c3c2c2cc(C)ccc2n3C)cc1` is inactive: -12.9%.
`Cc1nn(C)c(C)c1S(=O)(=O)N(CC(=O)Nc1ccc(F)cc1F)c1ccc(C(C)C)cc1`: the “activation” value was inactive: -2.77%.
